Measured values published in the supplement of paper PMC11741623.
This is one part of the list. Interaction screen of human proteins with wild-type SARS-CoV-2 proteins by split-DHFR complementation in yeast, 1 µg/mL methotrexate. Value = fitness of the pair (three or more lineages) minus that of the viral protein without a human partner, on a scale set by negative (0) and fused positive (1) controls, mean of up to three cultures; higher = more likely to interact. Active = false discovery rate below 0.05 (one-sided t-test) in at least one culture. Nearly all pairs are not hits, and differences among them are mostly noise (correlation between cultures about 0.3); most hits were seen in one culture only. Human sequences are the Swiss-Prot entries looked up by gene name; the clone may be another isoform. NSP2 values were corrected by the authors for a growth advantage. Listed are human proteins with a hit and a random twelfth of the others.

How the values were obtained:
Assay in all cases: yeast fitness gain over the viral ORF with no human partner (scaled fitness); higher = more likely to interact
SARS-CoV-2 E = target: SARS-CoV-2 E
Procedure: (§1)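 Split mouse DHFR complementation in pooled diploid yeast: human ORFeome clones carry one fragment and viral ORFs the other; barcoded lineages compete in 1 µg/mL methotrexate and fitness is read by barcode sequencing in up to three cultures.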

SARS-CoV-2 M = target: SARS-CoV-2 M
Procedure: as §1

SARS-CoV-2 N = target: SARS-CoV-2 N
Procedure: as §1

SARS-CoV-2 NSP1 = target: SARS-CoV-2 NSP1
Procedure: as §1

SARS-CoV-2 NSP10 = target: SARS-CoV-2 NSP10
Procedure: as §1

SARS-CoV-2 NSP12 = target: SARS-CoV-2 NSP12
Procedure: as §1

SARS-CoV-2 NSP13 = target: SARS-CoV-2 NSP13
Procedure: as §1

SARS-CoV-2 NSP14 = target: SARS-CoV-2 NSP14
Procedure: as §1

SARS-CoV-2 NSP15 = target: SARS-CoV-2 NSP15
Procedure: as §1

SARS-CoV-2 NSP16 = target: SARS-CoV-2 NSP16
Procedure: as §1

SARS-CoV-2 NSP2 = target: SARS-CoV-2 NSP2
Procedure: as §1

SARS-CoV-2 NSP4 = target: SARS-CoV-2 NSP4
Procedure: as §1

SARS-CoV-2 NSP5 = target: SARS-CoV-2 NSP5
Procedure: as §1

SARS-CoV-2 NSP6 = target: SARS-CoV-2 NSP6
Procedure: as §1

SARS-CoV-2 NSP7 = target: SARS-CoV-2 NSP7
Procedure: as §1

SARS-CoV-2 NSP8 = target: SARS-CoV-2 NSP8
Procedure: as §1

SARS-CoV-2 NSP9 = target: SARS-CoV-2 NSP9
Procedure: as §1

SARS-CoV-2 ORF10 = target: SARS-CoV-2 ORF10
Procedure: as §1

SARS-CoV-2 ORF3A = target: SARS-CoV-2 ORF3A
Procedure: as §1

SARS-CoV-2 ORF3B = target: SARS-CoV-2 ORF3B
Procedure: as §1

SARS-CoV-2 ORF6 = target: SARS-CoV-2 ORF6
Procedure: as §1

SARS-CoV-2 ORF7A = target: SARS-CoV-2 ORF7A
Procedure: as §1

SARS-CoV-2 ORF7B = target: SARS-CoV-2 ORF7B
Procedure: as §1

SARS-CoV-2 ORF8 = target: SARS-CoV-2 ORF8
Procedure: as §1

SARS-CoV-2 ORF9B = target: SARS-CoV-2 ORF9B
Procedure: as §1

[1] = target: SARS-CoV-2 ORF9Bwu (the 73-codon ORF)
Procedure: as §1

SARS-CoV-2 S = target: SARS-CoV-2 S
Procedure: as §1

Row | Binder | yeast fitness gain (SARS-CoV-2 E) | yeast fitness gain (SARS-CoV-2 M) | yeast fitness gain (SARS-CoV-2 N) | yeast fitness gain (SARS-CoV-2 NSP1) | yeast fitness gain (SARS-CoV-2 NSP10) | yeast fitness gain (SARS-CoV-2 NSP12) | yeast fitness gain (SARS-CoV-2 NSP13) | yeast fitness gain (SARS-CoV-2 NSP14) | yeast fitness gain (SARS-CoV-2 NSP15) | yeast fitness gain (SARS-CoV-2 NSP16) | yeast fitness gain (SARS-CoV-2 NSP2) | yeast fitness gain (SARS-CoV-2 NSP4) | yeast fitness gain (SARS-CoV-2 NSP5) | yeast fitness gain (SARS-CoV-2 NSP6) | yeast fitness gain (SARS-CoV-2 NSP7) | yeast fitness gain (SARS-CoV-2 NSP8) | yeast fitness gain (SARS-CoV-2 NSP9) | yeast fitness gain (SARS-CoV-2 ORF10) | yeast fitness gain (SARS-CoV-2 ORF3A) | yeast fitness gain (SARS-CoV-2 ORF3B) | yeast fitness gain (SARS-CoV-2 ORF6) | yeast fitness gain (SARS-CoV-2 ORF7A) | yeast fitness gain (SARS-CoV-2 ORF7B) | yeast fitness gain (SARS-CoV-2 ORF8) | yeast fitness gain (SARS-CoV-2 ORF9B) | yeast fitness gain [1] | yeast fitness gain (SARS-CoV-2 S)
1 | ORMDL3, Q8N138 (protein) MNVGTAHSEVNPNTRVMNSRGIWLSYVLAIGLLHIVLLSIPFVSVPVVWTLTNLIHNMGMYIFLHTVKGTPFETPDQGKARLLTHWEQMDYGVQFTASRKFLTITPIVLYFLTSFYTKYDQIHFVLNTVSLMSVLIPKLPQLHGVRIFGINKY | inactive: -0.0316 | inactive: 0.0713 | inactive: -0.0633 | inactive: 0.0759 | inactive: 0.0304 | inactive: -0.0699 | inactive: 0.00749 | inactive: 0.0879 | inactive: -0.0588 | inactive: 0.0121 | inactive: -0.109 | inactive: 0.3 | inactive: 0.0462 | inactive: 0.0831 | inactive: 0.0215 | inactive: 0.0249 | inactive: 0.0625 | inactive: 0.0209 | inactive: -0.0138 | inactive: 0.0208 | inactive: -0.0049 | inactive: 0.234 | active: 0.399 | inactive: 0.028 | inactive: -0.0078 | inactive: 0.0981 | inactive: -0.00362
2 | GCG, P01275 (protein) MKSIYFVAGLFVMLVQGSWQRSLQDTEEKSRSFSASQADPLSDPDQMNEDKRHSQGTFTSDYSKYLDSRRAQDFVQWLMNTKRNRNNIAKRHDEFERHAEGTFTSDVSSYLEGQAAKEFIAWLVKGRGRRDFPEEVAIVEELGRRHADGSFSDEMNTILDNLAARDFINWLIQTKITDRK | inactive: -0.101 | inactive: -0.108 |  |  | inactive: -0.00824 | inactive: 0.125 | inactive: -0.0489 |  | inactive: -0.0104 |  | inactive: -0.148 |  |  | inactive: 0.0387 |  | inactive: -0.154 |  |  |  | inactive: 0.0702 | inactive: 0.0443 | inactive: -0.0121 | inactive: -0.04 | inactive: -0.107 | inactive: -0.139 | inactive: 0.0666 | inactive: 0.0352
3 | CHORDC1, Q9UHD1 (protein) MALLCYNRGCGQRFDPETNSDDACTYHPGVPVFHDALKGWSCCKRRTTDFSDFLSIVGCTKGRHNSEKPPEPVKPEVKTTEKKELCELKPKFQEHIIQAPKPVEAIKRPSPDEPMTNLELKISASLKQALDKLKLSSGNEENKKEEDNDEIKIGTSCKNGGCSKTYQGLESLEEVCVYHSGVPIFHEGMKYWSCCRRKTSDFNTFLAQEGCTKGKHMWTKKDAGKKVVPCRHDWHQTGGEVTISVYAKNSLPELSRVEANSTLLNVHIVFEGEKEFDQNVKLWGVIDVKRSYVTMTATKIEITMRKAEPMQWASLELPAAKKQEKQKDATTD | inactive: 0.00534 | inactive: -0.0731 |  | inactive: 0.0903 | inactive: 0.0354 | inactive: 0.0323 | inactive: -0.0223 |  | inactive: -0.0229 |  | active: 0.338 |  | inactive: 0.0883 | inactive: -0.104 | inactive: 0.0377 | inactive: -0.236 | inactive: -0.203 | inactive: -0.00949 | inactive: -0.236 | inactive: 0.0602 | inactive: 0.0358 |  | inactive: -0.177 | inactive: -0.0642 | inactive: 0.0114 | inactive: -0.0817 | inactive: 0.091
4 | ARHGEF18, Q6ZSZ5 (protein) MGDDQEDDFPRRLSESMEDLSLDLGALQGSEYLQDLGLGAPSHSQPGETPDSRPTGEEPGRDSLFSSLAGSQDLSRRRSWERSRSCSESWRRLSLDASAVDEEPCLPRTLASLALNLPGGGLKTWTQGCLSGGGTPAESPGKECDSPKKRGRSRSVPVSFYEIRSPEISPGLEVPTPPVQGLEPPVLECMEKDHVEPDHVLIVQQVLQELRQYHGARQRACMSASPGGAHSNLTWFEFLSESEDGAGKNEKSDKSTSVKRRLSCLRSRVTRQKEKGKSPAHLKDKGQDARERRECVNGHQLLQGTFSGPSSCPLCGKPFLSSASLKEHPRGTLLSDGSPALSRNVGMTVSQKGGPQPTPSPAGPGTQLGPITGEMDEADSAFLKFKQTADDSLSLTSPNTESIFVEDPYTASLRSEIESDGHEFEAESWSLAVDAAYAKKQKREVVKRQDVLYELMQTEVHHVRTLKIMLKVYSRALQEELQFSSKAIGRLFPCADDLLETHSHFLARLKERRQESLEEGSDRNYVIQKIGDLLVQQFSGENGERMKEKYGVFCSGHNEAVSHYKLLLQQNKKFQNLIKKIGNFSIVRRLGVQECILLVTQRITKYPVLVERIIQNTEAGTEDYEDLTQALNLIKDIISQVDAKVSECEKGQRLREIAGKMDLKSSSKLKNGLTFRKEDMLQRQLHLEGMLCWKTTSGRLKDILAILLTDVLLLLQEKDQKYVFASVDSKPPVISLQKLIVREVANEEKAMFLISASLQGPEMYEIYTSSKEDRNAWMAHIQRAVESCPDEEEGPFSLPEEERKVVEARATRLRDFQERLSMKDQLIAQSLLEKQQIYLEMAEMGGLEDLPQPRGLFRGGDPSETLQGELILKSAMSEIEGIQSLICRQLGSANGQAEDGGSSTGPPRRAETFAGYDCTNSPTKNGSFKKKVSSTDPRPRDWRGPPNSPDLKLSDSDIPGSSEESPQVVEAPGTESDPRLPTVLESELVQRIQTLSQLLLNLQAVIAHQDSYVETQRAAIQEREKQFRLQSTRGNLLLEQERQRNFEKQREERAALEKLQSQLRHEQQRWERERQWQHQELERAGARLQEREGEARQLRERLEQERAELERQRQAYQHDLERLREAQRAVERERERLELLRRLKKQNTAPGALPPDTLAEAQPPSHPPSFNGEGLEGPRVSMLPSGVGPEYAERPEVARRDSAPTENRLAKSDVPIQLLSATNQFQRQAAVQQQIPTKLAASTKGGKDKGGKSRGSQRWESSASFDLKQQLLLNKLMGKDESTSRNRRSLSPILPGRHSPAPPPDPGFPAPSPPPADSPSEGFSLKAGGTALLPGPPAPSPLPATPLSAKEDASKEDVIFF | inactive: -0.215 | inactive: 0.0988 | inactive: -0.0642 | inactive: -0.0971 | inactive: -0.0377 | inactive: 0.0468 | inactive: -0.0185 | inactive: 0.147 | inactive: -0.13 | inactive: 0.0796 | inactive: -0.143 |  | inactive: 0.0238 | inactive: -0.0117 | inactive: -0.0289 | inactive: -0.0418 | inactive: 0.00608 | inactive: -0.0292 | inactive: -0.0425 | inactive: 0.0404 | inactive: -0.0183 | inactive: -0.0325 | inactive: -0.00186 | inactive: 0.0173 | inactive: -0.0289 | inactive: -0.0728 | inactive: 0.0295
